{"source": "paper PMC4336329", "about": "(PLoS ONE, 2015)", "note": "About 2,200 (0.71%) of roughly 310,000 compounds showed an effect of 50% or more. Effects have a minus sign here. The list shows a part of the results.", "data": [{"target": "human ether-à-go-go-related gene (hERG) potassium channel (human, UniProt Q12809)", "sequence (Q12809 whole entry, looked up)": "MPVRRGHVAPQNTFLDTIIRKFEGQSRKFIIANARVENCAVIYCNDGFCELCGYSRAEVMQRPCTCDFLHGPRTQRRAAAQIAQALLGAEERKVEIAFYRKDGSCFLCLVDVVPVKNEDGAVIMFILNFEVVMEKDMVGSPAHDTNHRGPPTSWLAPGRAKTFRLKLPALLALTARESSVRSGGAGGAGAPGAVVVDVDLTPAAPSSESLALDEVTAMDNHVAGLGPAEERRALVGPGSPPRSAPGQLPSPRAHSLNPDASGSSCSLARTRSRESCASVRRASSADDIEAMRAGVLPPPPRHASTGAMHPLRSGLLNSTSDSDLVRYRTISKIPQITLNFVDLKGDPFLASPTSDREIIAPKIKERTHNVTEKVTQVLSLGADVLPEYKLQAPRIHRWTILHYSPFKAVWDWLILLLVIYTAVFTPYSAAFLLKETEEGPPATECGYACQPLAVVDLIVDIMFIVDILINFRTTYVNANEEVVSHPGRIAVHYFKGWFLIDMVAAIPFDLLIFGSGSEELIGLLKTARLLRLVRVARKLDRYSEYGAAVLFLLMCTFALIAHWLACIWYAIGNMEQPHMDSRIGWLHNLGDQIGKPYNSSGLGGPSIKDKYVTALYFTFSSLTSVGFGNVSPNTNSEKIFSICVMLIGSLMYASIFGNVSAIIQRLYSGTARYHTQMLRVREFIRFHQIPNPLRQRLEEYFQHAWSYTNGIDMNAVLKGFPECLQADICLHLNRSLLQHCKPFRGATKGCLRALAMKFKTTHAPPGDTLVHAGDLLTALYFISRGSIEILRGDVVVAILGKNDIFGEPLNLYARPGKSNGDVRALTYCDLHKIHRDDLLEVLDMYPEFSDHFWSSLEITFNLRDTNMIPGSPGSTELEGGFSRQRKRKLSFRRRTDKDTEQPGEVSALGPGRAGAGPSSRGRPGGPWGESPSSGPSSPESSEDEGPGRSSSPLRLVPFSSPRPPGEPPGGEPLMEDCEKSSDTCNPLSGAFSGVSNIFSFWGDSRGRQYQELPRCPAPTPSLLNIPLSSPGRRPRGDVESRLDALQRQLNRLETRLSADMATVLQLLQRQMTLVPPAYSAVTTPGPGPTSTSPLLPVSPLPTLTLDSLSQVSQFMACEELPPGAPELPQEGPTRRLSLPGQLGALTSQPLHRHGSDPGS", "experiment": "primary screen, population patch clamp on CHO cells stably expressing hERG", "units": {"hERG current change (%, negative = inhibition) at 1uM": "%"}, "values": [{"smiles": "C=CCc1ccc(OCCCNCc2ccccc2)c(OC)c1.O=C(O)C(=O)O", "hERG current change (%, negative = inhibition) at 1uM": -6.92}, {"smiles": "COc1cccc(OC)c1C(=O)Nc1ccccc1N1CCCCC1", "hERG current change (%, negative = inhibition) at 1uM": 1.39}, {"smiles": "C=CCCCCCCCCC(=O)Nc1c[nH]c(=O)[nH]c1=O", "hERG current change (%, negative = inhibition) at 1uM": 5.88}, {"smiles": "Cc1ccc(C(=O)CCC(=O)OCc2nnc(-c3ccccc3)o2)cc1", "hERG current change (%, negative = inhibition) at 1uM": -3.62}, {"smiles": "Cc1ccc(S(=O)(=O)N(CC(=O)N/N=C/c2ccccc2C(=O)O)c2cc(Cl)cc(Cl)c2)cc1", "hERG current change (%, negative = inhibition) at 1uM": 14.9}, {"smiles": "Cl.Clc1ccc(CNCC2CCCO2)c(Cl)c1", "note": "(stereo not drawn)", "hERG current change (%, negative = inhibition) at 1uM": 4.99}, {"smiles": "COc1ccc(N(CC(=O)NCCSc2ccccc2)S(=O)(=O)c2ccccc2)cc1", "hERG current change (%, negative = inhibition) at 1uM": 12}, {"smiles": "CC(NC(=O)C(=O)N1CCCCC1)C(c1cccs1)N1CCN(c2ccccc2)CC1", "note": "(stereo not drawn)", "hERG current change (%, negative = inhibition) at 1uM": -0.832}, {"smiles": "C#CCNC(=O)C1=C[C@@H](c2ccc(C#C)cc2)C[C@@H](OCc2ccc(CO)cc2)O1", "hERG current change (%, negative = inhibition) at 1uM": 10.9}, {"smiles": "Cc1ccc(C(=O)Nc2ccn(C)n2)cc1", "hERG current change (%, negative = inhibition) at 1uM": 20.7}, {"smiles": "Cc1cccnc1NC(=O)c1cccc(S(=O)(=O)N2CCN(c3ccccc3)CC2)c1", "hERG current change (%, negative = inhibition) at 1uM": -2.82}, {"smiles": "C=CCNC(=S)N1CCN(C2CCCCC2)CC1", "hERG current change (%, negative = inhibition) at 1uM": 1.64}, {"smiles": "c1ccc(CSc2nnc(-c3cccs3)n2Cc2ccco2)cc1", "hERG current change (%, negative = inhibition) at 1uM": -8.44}, {"smiles": "CCC(=O)Nc1c(C)nn(-c2ccc(C)c(C)c2)c1C", "hERG current change (%, negative = inhibition) at 1uM": 7.45}, {"smiles": "CSc1nc(-c2ccco2)nn1C(=O)c1ccc(C)cc1", "hERG current change (%, negative = inhibition) at 1uM": 6.5}, {"smiles": "CCC(=O)Nc1ccc(C(=O)N2CCN(C(=O)c3ccco3)CC2)cc1", "hERG current change (%, negative = inhibition) at 1uM": 1.93}, {"smiles": "O=C(CCC1CCCN(C(=O)C2CCCC2)C1)NCc1ccc(F)c(F)c1", "note": "(stereo not drawn)", "hERG current change (%, negative = inhibition) at 1uM": 7.69}, {"smiles": "CCC(=O)Nc1nc2ccc3nc(C)sc3c2s1", "hERG current change (%, negative = inhibition) at 1uM": 6.59}, {"smiles": "CCOC(=O)C1CCN(C(=O)Cc2cccs2)CC1", "hERG current change (%, negative = inhibition) at 1uM": -1.77}, {"smiles": "CCOP(=O)(C#CC(C)(C)C)C(O)(c1ccccc1)C(F)(F)F", "note": "(stereo not drawn)", "hERG current change (%, negative = inhibition) at 1uM": 4.82}, {"smiles": "NC(=O)c1ccsc1NC(=O)COC(=O)COc1ccccc1F", "hERG current change (%, negative = inhibition) at 1uM": 13.5}, {"smiles": "Cc1ccc(OCCOCCOc2ccc(Br)cc2/C=N\\NC(=O)c2ccncc2)cc1", "hERG current change (%, negative = inhibition) at 1uM": 3.41}, {"smiles": "Cc1ccc(-c2cc3c(n2-c2ccc(C(=O)O)cc2)CCCC3=O)cc1", "hERG current change (%, negative = inhibition) at 1uM": 10.4}, {"smiles": "Cc1noc(C)c1CSc1ccc(Br)cc1", "hERG current change (%, negative = inhibition) at 1uM": 12.5}, {"smiles": "CCOc1ccc(C(=O)N(CN2CCCC2=O)c2ccc(C)cc2)cc1", "hERG current change (%, negative = inhibition) at 1uM": -5.23}, {"smiles": "Cc1ccccc1/C=N/N1C(=O)CSC1=S", "hERG current change (%, negative = inhibition) at 1uM": 15.9}, {"smiles": "Cc1[nH][nH]c(=O)c1C(c1ccc(-c2ccc(F)cc2)o1)c1c(C)[nH][nH]c1=O", "hERG current change (%, negative = inhibition) at 1uM": 17.5}, {"smiles": "Cc1ccc(/C=N/NS(=O)(=O)c2ccccc2)o1", "hERG current change (%, negative = inhibition) at 1uM": 5.5}, {"smiles": "Cc1ccc(Cl)cc1N1CCN(C(=O)C2(S(=O)(=O)c3ccc(Cl)cc3)CC2)CC1", "hERG current change (%, negative = inhibition) at 1uM": 0.696}, {"smiles": "Cc1onc(-c2c(Cl)cccc2Cl)c1C(=O)NCCc1ccncc1", "hERG current change (%, negative = inhibition) at 1uM": 1.09}, {"smiles": "C=CCn1c(SCc2cc(=O)n3ccsc3n2)nc2ccccc2c1=O", "hERG current change (%, negative = inhibition) at 1uM": 9.84}, {"smiles": "COCCCNC(=O)CN(c1cc([N+](=O)[O-])ccc1OC)S(C)(=O)=O", "hERG current change (%, negative = inhibition) at 1uM": 21.6}, {"smiles": "CCOC(OCC)c1cn(Cc2ccc(C(=O)c3ccccc3)cc2)nn1", "hERG current change (%, negative = inhibition) at 1uM": -1.82}, {"smiles": "O=C(/C=C/c1ccc(O)c(O)c1)OCCc1ccccc1", "hERG current change (%, negative = inhibition) at 1uM": 10.3}, {"smiles": "CC(C)CCN1CN(S(=O)(=O)c2cccs2)c2nc3ccccc3nc21", "hERG current change (%, negative = inhibition) at 1uM": 16.3}, {"smiles": "Cc1nc2nc(C)c(CCC(=O)N3CCN(c4ccccc4)CC3)c(C)n2n1", "hERG current change (%, negative = inhibition) at 1uM": -23.4}, {"smiles": "COc1cccc(-n2c(O)c(C=NCc3ccccn3)c3ccccc3c2=O)c1", "hERG current change (%, negative = inhibition) at 1uM": 3.45}, {"smiles": "COc1ccc(S(=O)(=O)n2nc(C)c(S(=O)(=O)N3CCOCC3)c2C)cc1OC", "hERG current change (%, negative = inhibition) at 1uM": 15.9}, {"smiles": "Cc1cc(C)cc(N(CC(=O)N2CCCCCC2)S(C)(=O)=O)c1", "hERG current change (%, negative = inhibition) at 1uM": 15.1}, {"smiles": "Cc1ccc(C(=O)NCCONC(=O)c2ccc(C)cc2)cc1", "hERG current change (%, negative = inhibition) at 1uM": 14.1}, {"smiles": "COc1cccc(-c2nc(CS(=O)CC(=O)NC3CC3)c(C)o2)c1", "note": "(stereo not drawn)", "hERG current change (%, negative = inhibition) at 1uM": 8.42}, {"smiles": "CCCCNC(=S)Nc1ccc(SC(F)F)cc1", "hERG current change (%, negative = inhibition) at 1uM": 4.93}, {"smiles": "CCCCN(C(=O)COC(=O)CSc1ccc([N+](=O)[O-])cc1)c1c(N)n(CCC)c(=O)[nH]c1=O", "hERG current change (%, negative = inhibition) at 1uM": 13.3}, {"smiles": "Cc1ccccc1C(=O)Nc1ccc(N2CCCC2)cc1.Cl", "hERG current change (%, negative = inhibition) at 1uM": 7.79}, {"smiles": "CCc1nc(CN(C)C(=O)C2CCC(=O)N(CCc3cccc(F)c3)C2)no1", "note": "(stereo not drawn)", "hERG current change (%, negative = inhibition) at 1uM": 0.983}, {"smiles": "O=C(c1cc(-c2ccccc2Cl)on1)N1CCCC1", "hERG current change (%, negative = inhibition) at 1uM": 5.55}, {"smiles": "COc1ccc(C(=O)N/N=C/c2ccc(OC(=O)c3ccccc3)cc2)cc1", "hERG current change (%, negative = inhibition) at 1uM": 14.2}, {"smiles": "COc1cccc(C2CC(c3ccccc3)=NN2S(=O)(=O)c2ccccc2)c1OC", "note": "(stereo not drawn)", "hERG current change (%, negative = inhibition) at 1uM": 12.7}, {"smiles": "CCOC(=O)c1[nH]c(C)c(C(=O)NC2CCN(C(=O)OCC)CC2)c1C", "hERG current change (%, negative = inhibition) at 1uM": 9.39}, {"smiles": "CC(NC(=O)c1c(O)c2ccccc2[nH]c1=O)c1ccccc1", "note": "(stereo not drawn)", "hERG current change (%, negative = inhibition) at 1uM": 15.7}, {"smiles": "COc1ccc(OC)c(-c2c(=O)n(OCc3ccccc3Br)c3ccccc3[n+]2[O-])c1", "hERG current change (%, negative = inhibition) at 1uM": 8.69}, {"smiles": "COc1ccc(/C=N/NC(=O)CCN2CCN(c3ccccc3)CC2)c(OC)c1OC", "hERG current change (%, negative = inhibition) at 1uM": -2.99}, {"smiles": "COc1ccc(CCNC(=O)CC2Nc3ccccc3NC2=O)cc1OC", "note": "(stereo not drawn)", "hERG current change (%, negative = inhibition) at 1uM": 12.7}, {"smiles": "O=C(c1ccc2c(c1)OCO2)N1CCC2(CC1)OCCO2", "hERG current change (%, negative = inhibition) at 1uM": -3.86}, {"smiles": "CCN(CC(=O)Nc1ccc2c(c1)OCCO2)C(=O)C1CC(=O)N(c2ccc(OC)cc2OC)C1", "note": "(stereo not drawn)", "hERG current change (%, negative = inhibition) at 1uM": -0.369}, {"smiles": "CCOC(=O)C(NC(=O)NCc1ccc(F)cc1)(OCC)C(F)(F)F", "note": "(stereo not drawn)", "hERG current change (%, negative = inhibition) at 1uM": 11.3}, {"smiles": "CCNC(=S)N1CCN(c2nc(-c3cccc(OC)c3)cs2)CC1", "hERG current change (%, negative = inhibition) at 1uM": 12.5}]}]}
